Assay results: the supplement of paper PMC11417369
± gives the standard deviation of the averaged measurements. The list shows a part of the results.

Test system: PfAP2-EXP AP2 domain (GST-tagged)
Assay: gcPBM binding intensity (ln(normalized median fluorescence intensity)); higher = stronger DNA binding
How it was run: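 Binding of GST-tagged P. falciparum DNA-binding domains, expressed in E. coli and used at about 25 μg on average, was carried out for 1 h in 1× PBS containing 1% milk, 0.2 mg/ml BSA, 0.5% salmon testes DNA and 0.03% Triton X-100. The target was an Agilent 4 × 180k array of primer-extended double-stranded 36-bp intergenic genomic probes plus negative controls, read with Alexa488 anti-GST antibody at 488 nm. Binding intensity is the highest Masliner-normalised natural-log median intensity across replicate spots of either probe orientation.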

Sequence | gcPBM binding intensity (ln)
TATTTTTTATGATTAACACACACACTAATAAAAAAA [CACACA_site9370] | 8.71 ± 0.39
ATTCTTACTAATATCGCACACACATATGTAGACGGG [CACACA_site88] | 9.01 ± 0.57
AATGAATATATTTATTGTACATATATGAATATTGCA [XGTACX_site8689] | 8.69 ± 0.37
ATTTTTTTATTTTTGTGTACTTATAAGAATATTAAT [XGTACX_site4850] | 8.75 ± 0.34
AAAAAAAAAAAAAAAAGTACAAAAAGGAGAAAGATA [XGTACX_site7862] | 8.9 ± 0.47
AGGTTTATAAAAAAAAAAAAAAAAAAAAAAAAAAAA [GTGCAC_negctrl_site113] | 7.89 ± 0.33
ACCCAGTGTATTCATAGTACACGCTCATATATTATC [XGTACX_site423] | 8.69 ± 0.41
AATATTTAAAACATATGTACTGAAAAACAATTGGAC [XGTACX_site6360] | 9.12 ± 0.38
CACAAAGGTCTGAAATTTTAGGGGTGCCTGGGACTA [CACACA_negctrl_site681] | 8.28 ± 0.47
AACAAGTTGCATGGTGCACACATGTATATATATCTA [CACACA_site2548] | 9.21 ± 0.21
TACAATTTTACTCATAAACACACATATATATGTTAT [CACACA_site9031] | 8.53 ± 0.36
AAAATGTATGTAGTCTGTACAAATACTCTATAAATA [XGTACX_site6475] | 8.4 ± 0.43
AATACTATTATTATTGCACACTTATTATCCCTCGGA [CACACA_site4262] | 8.65 ± 0.28
TATCCATTTCTTTATGTGCACATTAAATATATTTGT | 9.205 ± 0.064
TATAAAAATATTTCTACACACATTAATATATATATA [CACACA_site1150] | 9.49 ± 0.22
AATATATAGAGAGATATGCACACTGTATGAATGCAC [CACACA_site2677] | 8.58 ± 0.014
TATATTAATAATAAGTGTACATATATATATATTTTT [XGTACX_site288] | 8.36 ± 0.3
ATTTGTAAAAAATTCATACACACGTCTTATTTTTAA [CACACA_site1390] | 8.29 ± 0.41
AATGAGAAATATAATTGTACATATATTTATTTTCAT [XGTACX_site3669] | 8.24 ± 0.33

Sequence | gcPBM binding intensity (ln)
TATTTTTTCTTTCATTGTACTTTTTTTTTGTTTTGT [XGTACX_site4081] | 8.77 ± 0.47
AAAAAATTAATATTGACACACATTTTTAAGAATAAT [CACACA_site239] | 8.22 ± 0.47
AAACAAAAAATTTAAAGTACAAAAATTATGATTGTT [XGTACX_site465] | 8.54 ± 0.54
AATATGTCTATATTTTTTATATGGAAATATTATAAA [GTGCAC_negctrl_site700] | 7.92 ± 0.39
CAAAAGGATAGGCACACACACACACCCATATATATA [CACACA_site2199] | 8.8 ± 0.49
TTTTTTTTTTTTTTTTTTTTTTTATCTATTATTTAT [XGTACX_negctrl_site496] | 8.05 ± 0.23
TATTTATATTTATATACACACATACATATTTATATT [CACACA_site6535] | 8.41 ± 0.33
TCTTAATTTGTTATATGTACATAATATAATTGTATA [XGTACX_site5184] | 8.59 ± 0.33
TATTTTGTAATAATTACACACGGAATTATAACAGAA [CACACA_site2355] | 8.69 ± 0.43
ATATATATATTTATATTTATATGTAAATATCAACGT [TGCATGCA_negctrl_site32] | 9.24 ± 0.057
TTATATTAATAAAAAGAAAATCATTTTTTCTTTTAT [CACACA_negctrl_site1595] | 7.96 ± 0.39
AATATTATGTATAACCGTACATTATATATATAATAA [XGTACX_site1594] | 8.38 ± 0.4
ATTGTGTTAATGAAATGTACATTTTCTCTACGTTAA [XGTACX_site1322] | 8.8 ± 0.52
TCCTACATATTATAGTGTACATTTTCATGTTCATAT [XGTACX_site4308] | 8.62 ± 0.39
AAGTATTATATATTTTGTACATATATAAAACCACAA [XGTACX_site5508] | 8.44 ± 0.38
ATTAAAATAATTTAATTTCTTAGACACAATTTGTAA [GTGCAC_negctrl_site331] | 8 ± 0.53
GTGTAAAGGTATTATTGTATTATTCAAAATAAAAAA [CACACA_negctrl_site637] | 8.29 ± 0.39
TTAAACTTGTTTTGGATGCACTATATAATTCATTTT [GTGCAC_site9549] | 8.31 ± 0.3
ACAGAATACATATACACACATACAAAAAAGTGCATA [CACACA_site987] | 8.71 ± 0.39

Sequence | gcPBM binding intensity (ln)
CATTATGTTGTAAATGCACACATACATATACACAGT [CACACA_site8990] | 8.71 ± 0.16
TCATACTGTATATTTTGTACTTATATATATATTATA [XGTACX_site6136] | 8.81 ± 0.34
ATAATAAGCAAACACACACACACAAAAAAAAAAAAA [CACACA_site720] | 8.36 ± 0.52
TTATTTTGTTTTAAAAGTACACACTTTTAATTAGAT [XGTACX_site2271] | 8.36 ± 0.29
TATATAAACACGTACACACACATATAGGTATTTATA [CACACA_site7615] | 8.71 ± 0.49
AAAAGATTGCTCCGCATGCACCTCCAAAAGTTCCTT [GTGCAC_site9993] | 9.1 ± 0.21
TACAAAAGCGATACGGCACACATTTCCTGTTTAAAT [CACACA_site2746] | 8.74 ± 0.33
TTTGCTTCCAAAAGTCGTACAAAAAATATTAAATAT [XGTACX_site4171] | 8.58 ± 0.23
TATACATATAAATTGTGTACACATATATATATATTT [XGTACX_site7875] | 8.73 ± 0.22
TATCAAAATTAGTATACACACAAAATTATTCAAATA [CACACA_site2232] | 8.2 ± 0.42
TAAAAGGAAAAAAAAGCACACACAATATTACTTGAA [CACACA_site8831] | 8.57 ± 0.51
AATATATAAATTAATACATGCACATATAGAAAGGGA [TGCATGCA_site472] | 9.35 ± 0.32
CTTTTTACTTAATACACACACACACTAGAAAAAAAA [CACACA_site4680] | 8.84 ± 0.62
CTTTTCTTTTTTTTTTGTACATAAAATTATTCCTTA [XGTACX_site3924] | 8.7 ± 0.44
TTTTGTTGCTCTTTTTTTTTTTTTTTTAACTGTATG [CACACA_negctrl_site1072] | 8.57 ± 0.43
AATATAGTCACACATACACACATATAGATTTATATA [CACACA_site7223] | 8.48 ± 0.42
AAAAAAAAAAAAAGGTGTACATAAGTAAATTCATAT [XGTACX_site4206] | 8.7 ± 0.54
AACCAATATGTGTATACACACATAAATATAAATATA [CACACA_site7729] | 8.41 ± 0.31
